# According to the supplement of paper PMC11417369:
# ± gives the standard deviation of the averaged measurements. This is one part of the list.
# System: PfAP2-I AP2 domain 3 (GST-tagged)
# Assay: gcPBM binding intensity (ln(normalized median fluorescence intensity)); higher = stronger DNA binding
# In short: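 The highest Masliner-normalised natural-log median intensity across replicate spots of either probe orientation is reported as binding intensity. GST-tagged P. falciparum DNA-binding domains expressed in E. coli were applied for 1 h to an Agilent 4 × 180k array of primer-extended double-stranded 36-bp intergenic genomic probes plus negative controls, and bound protein was detected with Alexa488 anti-GST antibody and scanned at 488 nm.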
row,Sequence,gcPBM binding intensity (ln)
1,TTTTAACAAAAAAAAAGAAAAGAAAAGAAAATAATA [XGTACX_negctrl_site530],7.32 ± 0.61
2,TTAACTCTGGAGAAAAGTACATAGTATCTGGTAACA [XGTACX_site4941],7.66 ± 0.67
3,ATAAATAAATAAATAAATAAATATACATATACATAT [CACACA_negctrl_site205],7.58 ± 0.59
4,AGCATTTTAAGTTATACACACATTTTGAATCTATAT [CACACA_site7599],7.88 ± 0.63
5,AAGAAATAAAAAGAATGTACACAATATGTATTATAA [XGTACX_site4733],7.99 ± 0.43
6,TGGACAATTGTTTATTGTACTTAAATTTTATGTTCT [XGTACX_site8974],7.54 ± 0.48
7,TCTTATTCAAACGTAAAACGAAGAAGAAAAAAAAAA [CACACA_negctrl_site149],7.74 ± 0.81
8,ATATACTATATTTTAACACACAAAAAAAAAAAATAT [CACACA_site1091],8 ± 0.59
9,AAATTATATATATTACGTACATAGAACTTTACAGAA [XGTACX_site6646],7.96 ± 0.34
10,ATGTTACACCGACACACACACATAAAAAAACAAAAA [CACACA_site5750],8.15 ± 0.34
11,GTGTTTGAAAATAAAGCATGCAAATATATTTGAAAT [TGCATGCA_site386],8.03 ± 0.71
12,TTTTTTTTGTTCATTGTGCACATTGCTTGCATGGAA [GTGCAC_site9693],10.5 ± 0.15
13,AAAATAATAAATAAATGTACATATATATATATATAT [XGTACX_site3078],9.2 ± 0.25
14,ATAAGATTATACAATTGTACGTTGTTCAAGATAAGG [XGTACX_site191],7.96 ± 0.48
15,AACTAATTCATGTTATATTAGATAAAAAAAAAAAAA [TGCATGCA_negctrl_site340],7.98 ± 0.57
16,ATATTTTTTAATTTTACACACCATATAAAATAATTC [CACACA_site7339],8.02 ± 0.58
17,AAATATATTATATGTACACACAAAATTAAGGGATAT [CACACA_site1375],8.24 ± 0.54
18,ATCAATACTTTTTTGGGTACATAAATATATATATAT [XGTACX_site8436],9.295 ± 0.078
19,ATATTATGAATTGTCACACATATATTTAAAAATGTA [CACACA_site4852],7.69 ± 0.47
20,TGCATATTACTTTTTCACATAAAAATGATCCGATTA [GTGCAC_negctrl_site526],7.62 ± 0.41
21,TAAATATGTGTATGTAGTACATAGTGTTTTTTTTTT [XGTACX_site3748],7.63 ± 0.26
22,AAAAAATGACTTAATATGAGCATATATTATGTTGTT [CACACA_negctrl_site1609],7.35 ± 0.52

row,Sequence,gcPBM binding intensity (ln)
1,GTTATACACATCAACACACACATACAACGTGGTGTA [CACACA_site6677],7.8 ± 0.59
2,AAAATATAAAAATGAAGTACAAAAAAAAAAAAAAAA [XGTACX_site8132],8.04 ± 0.79
3,CATTAAAATTGAGAGATGCACTTTTTAAGACCTTGT,8.53 ± 0.39
4,TTTTTTTTTTTTTTTTTTTTACCCCTTTTTCAAAAA [CACACA_negctrl_site1524],8.21 ± 0.69
5,AAAACATTGTTTATGTGTACATAATTATATTTACAA [XGTACX_site6926],7.76 ± 0.33
6,TCTAACATATAATATTCACACACATATATATATTAT [CACACA_site8236],7.75 ± 0.47
7,TGGTTTCAATAATTAATAAAATATATTATTGTGAAA [CACACA_negctrl_site442],7.28 ± 0.45
8,ATAATATATTTATAATGTACAAACCATTTGTATTAA [XGTACX_site4370],7.58 ± 0.46
9,ATTATTATTATATTTTGTACATATGTAACAATATAT [XGTACX_site5780],7.83 ± 0.47
10,GCTTCTTAATATCATACACACATAGATATATTTATA [CACACA_site5676],8.11 ± 0.58
11,GGAGACTTTGTATTGGGTACGTATTTCAATGCATGT [XGTACX_site1596],8.25 ± 0.59
12,TTTTTTAACAAAAATAAAACATAACTGAATTAAAAG [GTGCAC_negctrl_site244],7.8 ± 0.56
13,CTTCCTATATTTTACTGTACTTTTTTTTTTTTTTTT [XGTACX_site4016],8.81 ± 0.27
14,CATACATACATACATACACACACATATATATATATA [CACACA_site8593],9.7 ± 0.4
15,AAACCTTTACATCGTTTGCACTATATTGATATGTGT [GTGCAC_site9686],9.38 ± 0.35
16,ACGAATTAAATTTGCTGTACCAAAAAGAAAACAATA [XGTACX_site5511],7.88 ± 0.54
17,TAAAATGTACAGGACGCACACACATATATATATATA [CACACA_site3673],9.42 ± 0.44
18,TTTTTTTTTTTTCATTGTACTCTTAAAAATTCAACT [XGTACX_site3154],8.24 ± 0.85
19,TATTTTTTTTTTTTTTTACACACTATAGGGAAAAAA [CACACA_site8583],7.79 ± 0.46
20,ATTAAAATTTAAAATACACACACATATATATAATAT [CACACA_site8612],7.91 ± 0.42
21,AACAACAACTAATATGCACACATTTAAAAACAAAAT [CACACA_site2440],9.42 ± 0.26
22,TGTCATGATACATACACACACATACCCATACCCATA [CACACA_site5211],8.02 ± 0.38

row,Sequence,gcPBM binding intensity (ln)
1,AAATAAAGCATGTGCTGTACAAACGAAATATTTAAG [XGTACX_site3146],8.38 ± 0.61
2,TTTATGTGTATTAAGTGTACACATATAGTGTATTTT [XGTACX_site999],7.96 ± 0.18
3,ATATATAAGGAAAAAAGTACTTATATTTTTTTTTTG [XGTACX_site1909],7.38 ± 0.42
4,AACAAATGTTAAATGTTTAAGGAGAAAATAAAGACA [CACACA_negctrl_site1163],7.92 ± 0.45
5,AAAACGAAACATCTGTGTATAAGTCTATATTATTAT [XGTACX_negctrl_site301],7.57 ± 0.63
6,GAAAACATAAAAATATGTACTTAAAATATATTTTGT [XGTACX_site868],7.58 ± 0.45
7,TTTAAATACAGACATACACACATACACCCACATATA [CACACA_site8078],8.25 ± 0.085
8,TAAGAAATAAATAGTACACACATAGACACAGACACA [CACACA_site4934],8.3 ± 0.32
9,TGTTTTTATTTATTCTGTACTGAAGAGAGTTATATA [XGTACX_site8859],7.86 ± 0.57
10,ATATAAATTTTTTATGAACACACAAATACAGACACT [CACACA_site8848],8.38 ± 0.11
11,GTATATGAGAAAAAAAGTACATGCACAAAATGTATA [XGTACX_site6441],8.55 ± 0.71
12,ATAATTAAAAAAAATTGTACATATAAATAGAAGATT [XGTACX_site230],8.11 ± 0.56
13,AGATTAAAATAATATAAACACACATATACTTTTTTC [CACACA_site8085],7.53 ± 0.54
14,TAGGTATGCTCTCAATGTACATAAAATAATTTTACT [XGTACX_site6556],7.97 ± 0.3
15,AAAAAAAAAAGAATAGCACACACACCGATATAAATA [CACACA_site8111],7.97 ± 0.5
16,ATATTCATGTTGATATGTACTTATTCTATATTGAAT [XGTACX_site8347],7.7 ± 0.24
17,TATATATATATATATATACACACTTGTGCAGAATAT [CACACA_site2216],9.78 ± 0.057
18,AATACAAGAACTGACACACATACATACTACATTTTA [CACACA_site2829],8 ± 0.63
19,ATATTTATATATAGTAGTACTTTCAATAATTTAAAT [XGTACX_site7276],7.74 ± 0.26
20,AAAGAAAGAAGACACACACACATATATAAATATCAA [CACACA_site7715],7.66 ± 0.49
21,TATGATATTTATATGCGTACTGAAGTATGCCTATTT [XGTACX_site6133],7.67 ± 0.52
22,AAAAAATTAAAAATACGTACATATATACATATATAT [XGTACX_site4621],7.79 ± 0.38

row,Sequence,gcPBM binding intensity (ln)
1,TCATTTTAAAAAAATAGTACTTTAAGAAACTTTTAT [XGTACX_site602],7.45 ± 0.23
2,TTTTTTTTTTTTTTTTTTTATGTATACATATTTATA [TGCATGCA_negctrl_site234],8.06 ± 0.55
3,GATATTCTATAAAAAAGTACAAATATTTTAAAAAAT [XGTACX_site2177],7.91 ± 0.42
4,TAAATCCTTTACAACACACACACAAAAAAAAAAAAA [CACACA_site643],8.01 ± 0.55
5,AGCATTAATTATTTCACACATATATATATATATATA [CACACA_site4889],9.3 ± 0.85
6,GATTATATATACAAAAGTACATTATAAAAATTTCAT [XGTACX_site4223],7.78 ± 0.26
7,CCCTTAAAATATAAATGTACAAAATTATTTGTATGT [XGTACX_site6164],7.83 ± 0.55
8,TTCTTTTAATTACGAGTGCATACCATATGACATTAT [GTGCAC_site9819],8.8 ± 0.33
9,GTGAATATTAAAAAATGTACACAATTATATGTATAT [XGTACX_site4834],7.71 ± 0.38
10,AGAAAAGAGAGAAAAACATGCACATGATATTATAAA [TGCATGCA_site120],7.79 ± 0.67
11,ATAAACATCTAGTGCTGTACACAATTTGATTTTTTT [XGTACX_site3110],8.9 ± 0.31
12,CAAATACATGGACACACACACATATACAGATATATA [CACACA_site5854],7.99 ± 0.24
13,CAAACATGTTCAAATTGTACAATAGAAAATATATAT [XGTACX_site1557],7.93 ± 0.59
14,TTTTTTTTTTTTTTCTGTACTTAAAAAGGGGGAGAA [XGTACX_site3799],8.79 ± 0.7
15,TTGAAGTTTGATTGTAGTACGAATTGGTAGTTTTTT [XGTACX_site6854],7.76 ± 0.4
16,TATTTATAACATTGTACACACAAAGAAATAATATTA [CACACA_site7422],7.82 ± 0.38
17,ACGTATGTATATTACACACATACATATTATTCACTA [CACACA_site204],7.75 ± 0.64
18,ACATATATATACTATCGATTAATAAATTTGTTTTTT [CACACA_negctrl_site881],7.85 ± 0.64
19,CATATATAACATATAACACACATACTTAGTATTACA [CACACA_site5674],7.79 ± 0.33
20,ATGATAAACATGGATACACACATATATATTACATAT [CACACA_site1576],7.84 ± 0.48
21,ATAATATTTTATATAGTGCATTTGCTCATTATATAT [GTGCAC_site9528],9.85 ± 0.45
22,TGAGTATATATAAATACACACCAAATGTTAATATAT [CACACA_site5022],7.67 ± 0.64
